{"source": "PubChem BioAssay AID624202", "about": "(National Center for Advancing Translational Sciences (NCATS), 2012)", "note": "Hit rate of the full screen: of about 380,000 compounds, about 4,000 (1.1%) were called active. Inconclusive means that the source gave no clear call. Such entries were picked first, then a sample of the others. Calls follow the shape of the dose curve; as a rule, active = well fitted activation curve with a large enough effect; inconclusive = small, poorly fitted or top-dose-only effect; inactive = no such curve, though single readings can be large or run the other way. Potencies of inconclusive entries are doubtful fits and often do not repeat. Potency is read from the fitted curve at half-maximal effect; tags tell the direction and shape of the fitted curve."}
{"assay": "qHTS Assay to Identify Small Molecule Activators of BRCA1 Expression; also: nearly all actives have a fitted effect of over 80% in size", "conditions": "MCF7-BRCA1-FFLuc reporter, luminescence, 48 h; activation: at 46.1 µM (top of the series), scaled: vehicle 0%, 10 µM genistein 100% unless noted", "outline": "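Luminescence from a BRCA1-driven firefly luciferase in MCF7 cells was the read-out, taken 15 min after substrate addition following 48 h compound exposure at 37 °C. Data were normalized to a 10 microM genistein control and DMSO vehicle.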"}
{"smiles": "CSc1cccc(NC(=S)N(CCCN2CCCC(C)C2)Cc2cccs2)c1", "note": "(configuration not stated)", "Potency": "inactive"}
{"smiles": "O=C(Nc1ccccc1F)n1ncc2cc(Cl)ccc21", "Potency": "inconclusive: 17.8 µM [activator, partial curve, poor fit]"}
{"smiles": "Cc1ccc(C2=NN(C(=S)Nc3ccccc3)C(c3ccco3)C2)cc1", "note": "(configuration not stated)", "Potency": "inconclusive: 2.82 µM [activator, full curve, poor fit]"}
{"smiles": "CN(C)/C=C1\\C(=O)N(c2ccc(Cl)cc2)CS1(=O)=O", "Potency": "active: 7.94 µM"}
{"smiles": "CC(Oc1ccc(F)cc1)C(=O)Nc1nc(-c2ccccn2)cs1", "note": "(configuration not stated)", "Potency": "inactive"}
{"smiles": "c1ccc(-c2noc(COc3ccc4c(c3)OCO4)n2)cc1", "Potency": "inconclusive: 12.6 µM [activator, partial curve, poor fit]"}
{"smiles": "COc1ccc2nc(NC(=O)c3cccs3)sc2c1", "Potency": "inconclusive: 0.631 µM [activator, full curve, poor fit]"}
{"smiles": "Cn1c(O)c(C=Nc2ccc(Br)cc2)sc1=O", "Potency": "inconclusive: 3.98 µM [activator, full curve, poor fit]"}
{"smiles": "O=C(COc1ccc(F)cc1Cl)NC1CCCCCC1", "Potency": "inconclusive: 2.51 µM [activator, full curve, poor fit]"}
{"smiles": "O=c1[nH]c(COc2ccc(Br)cc2Cl)nc2ccccc12", "Potency": "active: 3.98 µM"}
{"smiles": "COc1ccc(OCC(=O)Nc2nc3ccccc3[nH]2)cc1", "Potency": "active: 10 µM"}
{"smiles": "CC(C)(C)C(=O)Nc1nc2c(s1)CN(Cc1ccccc1)CC2", "Potency": "active: 8.91 µM"}
{"smiles": "Cc1cc(C(=O)NCc2cccs2)no1", "Potency": "inactive"}
{"smiles": "Cc1nn(-c2ccccc2)c(Cl)c1/C=N/Nc1nc2ccccc2n1C", "Potency": "inconclusive: 3.98 µM [activator, full curve, poor fit]"}
{"smiles": "O=C(OCCN1CCCCC1)c1c[nH]c2ccccc12", "Potency": "inactive"}
{"smiles": "CC(OC(=O)CCc1nc2ccccc2[nH]c1=O)c1ccccc1", "note": "(configuration not stated)", "activation": "inconclusive: 115% [activator]"}
{"smiles": "N#CCC(=O)N/N=C\\c1ccccc1OC/C=C/c1ccccc1", "Potency": "active: 2.51 µM"}
{"smiles": "CCNC(=O)N1CCNC(=O)C1CC(=O)Nc1ccc(C(=O)OCC)cc1", "note": "(configuration not stated)", "Potency": "inconclusive: 6.31 µM [activator, partial curve, poor fit]"}
{"smiles": "CCN(c1ccccc1)c1ncnc2c1cnn2-c1ccccc1", "Potency": "active: 5.01 µM"}
{"smiles": "CCc1nc2ccc(C(=O)NCCc3ccco3)cc2nc1CC", "Potency": "inconclusive: 12.6 µM [activator, partial curve, poor fit]"}
{"smiles": "CCCCN(CCCC)CC1OCc2ccccc2CO1", "Potency": "inactive"}
{"smiles": "Cc1cc(CCNC=O)c(C)c2c1oc1ccccc12", "Potency": "inconclusive: 10 µM [activator, partial curve, poor fit]"}
{"smiles": "Cc1ccc(C)c(N2N=C(C(=O)Nc3ccc(N4CCOCC4)cc3)CCC2=O)c1", "activation": "inconclusive: 96.3% [activator]"}
{"smiles": "CCNc1nc(N)nc(Oc2ccc(C(=O)OC)cc2)n1", "Potency": "inconclusive: 14.1 µM [activator, partial curve, poor fit]"}
{"smiles": "CC1Cc2ccccc2N1C(=O)CSc1nnc(NC(=O)Cc2cccs2)s1", "note": "(configuration not stated)", "Potency": "inactive"}
{"smiles": "CC(=O)c1ccc(S(=O)(=O)Oc2ccc(C(=O)O)cc2Cl)cc1", "Potency": "inactive"}
{"smiles": "COc1ccc(C2=Nn3c(nnc3-c3ccccc3Cl)SC2)cc1OCC1CC1", "Potency": "inactive"}
{"smiles": "O=C(N/N=C/c1ccccc1Cl)c1ccc(F)cc1", "Potency": "inconclusive: 3.55 µM [activator, full curve, poor fit]"}
{"smiles": "CCOC(=O)c1csc(COc2ccc(OC)cc2)n1", "activation": "inconclusive: -44.6% [activator]"}
{"smiles": "O=C(NCCc1ccc(O)cc1)c1ccc(Cl)cc1", "Potency": "inconclusive: 2.82 µM [activator, full curve, poor fit]"}
{"smiles": "CCOC(=O)c1oc2cc(O)cc(C)c2c1C", "Potency": "inconclusive: 20 µM [activator, single point]"}
{"smiles": "Cc1cccc(NC(=O)COc2ccc(Br)cc2/C=N/O)c1", "Potency": "active: 4.47 µM"}
{"smiles": "Cc1cc(C)n2nc(C(=O)Nc3ccc4c(c3)OCO4)cc2n1", "Potency": "inconclusive: 1.26 µM [activator, full curve, poor fit]"}
{"smiles": "Nc1ccc2c(c1)C/C(=C/c1ccco1)C2=O", "Potency": "inconclusive: 11.2 µM [activator, partial curve, poor fit]"}
{"smiles": "Cc1ccc(Sc2ccc(N3CCCC(C(=O)Nc4ccc(F)cc4)C3)nn2)cc1", "note": "(configuration not stated)", "Potency": "inactive"}
{"smiles": "Cc1ccc(C(=O)N/C(=C\\c2ccccc2)C(=O)OCc2ccccc2)cc1", "Potency": "active: 7.94 µM"}
{"smiles": "Cc1ccc(-n2c(SCC(=O)Nc3cccc(S(N)(=O)=O)c3)nc3ccccc32)cc1", "Potency": "inactive"}
{"smiles": "CCc1ccc(S(=O)(=O)NCc2cccs2)cc1", "Potency": "inactive"}
{"smiles": "Cc1ccc(C)c(OCc2cc(C(=O)N3CCN(C(=O)c4ccco4)CC3)no2)c1", "Potency": "inconclusive: 35.5 µM [activator, single point]"}
{"smiles": "N#CC1=C(N)C(C#N)(C#N)[C@H](c2c(F)cccc2F)[C@H]2CC3(CC=C12)OCCO3", "Potency": "inactive"}
{"smiles": "Cc1ccc(OCCNC(=O)c2ccc3c(c2)OCO3)cc1", "Potency": "inconclusive: 11.2 µM [activator, partial curve, poor fit]"}
{"smiles": "COc1cc(/C=C/C(=O)O)cc(S(=O)(=O)NC2CCCC2)c1OC", "Potency": "inactive"}
{"smiles": "CCC1CCCCN1CCCNC(=O)C(C)n1nc(C)c2sc3ccccc3c2c1=O", "note": "(configuration not stated)", "Potency": "inactive"}
{"smiles": "CCC(=O)Nc1c(C(=O)Nc2ccc3c(c2)OCCO3)oc2ccccc12", "Potency": "inconclusive: 6.31 µM [activator, full curve, poor fit]"}
{"smiles": "Cc1ccc(OC(=O)COc2ccccc2C)c(-n2nc3ccccc3n2)c1", "Potency": "inconclusive: 11.2 µM [activator, partial curve, poor fit]"}
{"smiles": "CC(=O)Nc1ccn(Cc2c(F)cccc2Cl)n1", "Potency": "inconclusive: 31.6 µM [activator, single point]"}
{"smiles": "Clc1ccccc1/C=C/c1nc(-c2cccnc2)no1", "Potency": "inconclusive: 1.78 µM [activator, full curve, poor fit]"}
{"smiles": "Cn1c(CSc2ccccc2)c(C#N)c2ccccc21", "Potency": "inconclusive: 10 µM [activator, partial curve, poor fit]"}
{"smiles": "CCCNC(=O)c1ccc(Cn2cc(-c3ccc(OC)cc3)nc2C(C)N)cc1", "note": "(configuration not stated)", "Potency": "active: 11.2 µM"}
{"smiles": "Cc1nc(-c2noc(-c3ccccc3Cl)n2)c(C(F)(F)F)o1", "Potency": "inconclusive: 15.8 µM [activator, single point]"}
{"smiles": "COC(=O)c1ccc(NC(=O)C(=O)c2cccn2C)cc1", "Potency": "inconclusive: 2 µM [activator, partial curve, poor fit]"}
{"smiles": "CC(C)(C)NC(=O)C(=O)NCCC1=CCCCC1", "Potency": "inconclusive: 15.8 µM [activator, single point]"}
{"smiles": "COc1ccc2oc(=N)c(C(=O)Nc3ccccc3Cl)cc2c1", "Potency": "active: 4.47 µM"}
{"smiles": "Cc1cccc(-n2ncc3c(N4CCC5(CC4)OCCO5)ncnc32)c1", "Potency": "inconclusive: 2.82 µM [activator, full curve, poor fit]"}
{"smiles": "O=S(=O)(c1ccc2ccccc2c1)N1CCN(S(=O)(=O)c2c(F)cccc2F)CC1", "Potency": "inconclusive: 14.1 µM [activator, partial curve, poor fit]"}
{"smiles": "Cc1nn(-c2ccccc2)nc1C(=O)c1c(C)[nH]n(-c2ccccc2)c1=O", "Potency": "inactive"}
{"smiles": "Cc1ccc(NC(=O)c2ccco2)cc1C", "Potency": "inconclusive: 6.31 µM [activator, partial curve, poor fit]"}
{"smiles": "CCOC(=O)C1CCN(C(=O)c2cc3cc(Br)ccc3oc2=O)CC1", "Potency": "inconclusive: 7.08 µM [activator, full curve, poor fit]"}
{"smiles": "Oc1cc2ccccc2cc1-c1n[nH]c(=S)n1Cc1ccco1", "Potency": "inactive"}
{"smiles": "COc1ccc2c(c1)CC/C(=C\\Nc1ccc3c(c1)OCO3)C2=O", "Potency": "active: 3.16 µM"}
{"smiles": "COc1ccccc1NS(=O)(=O)c1ccc2c(c1)NC(=O)C(C)S2", "note": "(configuration not stated)", "Potency": "inactive"}
{"smiles": "CN(CC(=O)Nc1ccc(Cl)cc1)CC(=O)Nc1ccc(C(N)=O)cc1", "Potency": "inactive"}
{"smiles": "C/C(=N\\N=C(/N)c1nonc1N)c1ccc2c(c1)OCO2", "Potency": "inconclusive: 2.24 µM [activator, full curve, poor fit]"}
{"smiles": "Cc1ccc(Cn2c(SCC(=O)N/N=C/c3ccc(C)o3)nc3ccccc32)cc1", "Potency": "inactive"}
{"smiles": "O=C(O)c1ccccc1N/N=C\\c1ccnc2ccccc12", "activation": "inconclusive: -75.1% [activator]"}
{"smiles": "O=C(Nc1ccc([N+](=O)[O-])cc1)c1ccccc1F", "Potency": "active: 4.47 µM"}
{"smiles": "Cc1ccc(N2C(=O)c3n[nH]c(C)c3C2c2ccccc2Cl)cc1", "note": "(configuration not stated)", "Potency": "inactive"}
{"smiles": "CCN1C(=O)S/C(=C\\c2ccc(N3CCOCC3)cc2C)C1=O", "Potency": "inconclusive: 10 µM [activator, partial curve, poor fit]"}
{"smiles": "CC(=O)c1ccc(NC(=O)CSc2nnc(-c3ccco3)o2)cc1", "Potency": "inconclusive: 17.8 µM [activator, single point]"}
{"smiles": "COc1ccc(CCNC(=S)Nc2cccc(C)c2)cc1", "Potency": "inactive"}
{"smiles": "CC(C)CNC(=S)NC(=O)c1ccccc1Cl", "Potency": "inconclusive: 7.94 µM [activator, partial curve, poor fit]"}
{"smiles": "Cc1ccc(Nc2nc(N)nc(COC(=O)C3=COCCO3)n2)cc1", "Potency": "active: 3.98 µM"}
{"smiles": "O=C(CN1C(=O)S/C(=C\\C=C\\c2ccccc2)C1=O)NC1CCS(=O)(=O)C1", "note": "(configuration not stated)", "Potency": "inconclusive: 20 µM [activator, single point]"}
{"smiles": "O=c1[nH][nH]c(=O)c2c(NS(=O)(=O)c3ccccc3)cccc12", "Potency": "active: 12.6 µM"}
{"smiles": "O=C(Nc1nccs1)c1ccc(CSc2ccccc2)o1", "Potency": "active: 2.82 µM"}
{"smiles": "O=C1C(=C(c2ccccc2)c2ccccc2)Nc2ccccc21", "Potency": "inactive"}
{"smiles": "Cc1ccc(C(=O)Nc2ccc3c(c2)OCCO3)cc1S(=O)(=O)N1CCOCC1", "Potency": "inconclusive: 1.26 µM [activator, full curve, poor fit]"}
